Some of the results follow.

This assay concerns the target T1, MBP-FoxP1dN (Mus musculus, UniProt P58462 326-579).
T1 sequence: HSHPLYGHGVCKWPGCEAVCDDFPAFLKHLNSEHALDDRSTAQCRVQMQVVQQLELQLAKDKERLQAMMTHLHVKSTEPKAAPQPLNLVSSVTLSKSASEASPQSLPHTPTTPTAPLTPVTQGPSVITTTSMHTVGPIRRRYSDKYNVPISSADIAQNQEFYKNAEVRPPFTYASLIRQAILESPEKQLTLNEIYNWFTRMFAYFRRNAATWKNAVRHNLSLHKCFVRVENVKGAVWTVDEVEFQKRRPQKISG
Briefly: PD-seq (MBP pull-down with sequencing); 20 mM Tris-HCl pH 7.5, 100 mM NaCl, 1.5 mM MgCl2, 0.4 uM protein, 0.1 uM dsDNA library, 30 min, room temperature, amylose pull-down; high values mean tight binding. Particulars: protein: recombinant; tags: His6-MBP; chain copies: 2; dsDNA, one strand shown. In outline:
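A fragment of mouse FoxP3 or FoxP1 without its N-terminus, carrying a His6-MBP tag and produced in E. coli, was combined at 0.4 µM with a 0.1 µM degenerate double-stranded DNA library filled in with Klenow. The mixture sat for 30 min at room temperature in Tris pH 7.5 buffer containing NaCl and MgCl2. Protein–DNA complexes were captured on amylose resin, washed three times, and the DNA was freed with proteinase K, barcoded by PCR and sequenced on Illumina. Binding is expressed as reads-per-million enrichment of pull-down over input, with replicates pooled.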
For “GATGATTGTTCTCCCAGCTGATGAATTACCTATCTCGAGTAAACAAATTTTCCTAATCTTTCTGTTCAAGCGCCATCTAC”, the binding signal is 0.95 RPM ratio (pull-down/input).
In the case of “GATGATTGTTCTCCCAGCTGATGAATTTATCTTTTCGAGTAAACAAATTTTCCTAATCTTTCTGTTCAAGCGCCATCTAC” it was 1.32 RPM ratio (pull-down/input); in that of “GATGATTGTTCTCCCAGCTGATGAATTTAAGATCTCGAGTAAACAAATTTTCCTAATCTTTCTGTTCAAGCGCCATCTAC”, 0.801 RPM ratio (pull-down/input); in that of “GATGATTGTTCTCCCAGCTGATGAATTAGTGCTGTCGAGTAAACAAATTTTCCTAATCTTTCTGTTCAAGCGCCATCTAC”, 1.18 RPM ratio (pull-down/input).
Take “GATGATTGTTCTCCCAGCTGATGAATTAAAACCATCGAGTAAACAAATTTTCCTAATCTTTCTGTTCAAGCGCCATCTAC”: the binding signal is 1.07 RPM ratio (pull-down/input).
The value for “GATGATTGTTCTCCCAGCTGATGAATTCTACAAGTCGAGTAAACAAATTTTCCTAATCTTTCTGTTCAAGCGCCATCTAC” was 0.831 RPM ratio (pull-down/input).
The value for “GATGATTGTTCTCCCAGCTGATGAATTAATACTGTCGAGTAAACAAATTTTCCTAATCTTTCTGTTCAAGCGCCATCTAC” was 1.05 RPM ratio (pull-down/input); that for “GATGATTGTTCTCCCAGCTGATGAATTGTTGCCTTCGAGTAAACAAATTTTCCTAATCTTTCTGTTCAAGCGCCATCTAC” was 1.49 RPM ratio (pull-down/input); that for “GATGATTGTTCTCCCAGCTGATGAATTTAGGGTGTCGAGTAAACAAATTTTCCTAATCTTTCTGTTCAAGCGCCATCTAC” was 0.941 RPM ratio (pull-down/input).
Take “GATGATTGTTCTCCCAGCTGATGAATTGTGTAGATCGAGTAAACAAATTTTCCTAATCTTTCTGTTCAAGCGCCATCTAC”: the binding signal was 1.29 RPM ratio (pull-down/input).
The value for “GATGATTGTTCTCCCAGCTGATGAATTGTGCTCCTCGAGTAAACAAATTTTCCTAATCTTTCTGTTCAAGCGCCATCTAC” was 0.997 RPM ratio (pull-down/input); that for “GATGATTGTTCTCCCAGCTGATGAATTTGGTTTTTCGAGTAAACAAATTTTCCTAATCTTTCTGTTCAAGCGCCATCTAC” was 0.945 RPM ratio (pull-down/input).
In the case of “GATGATTGTTCTCCCAGCTGATGAATTTGGAATATCGAGTAAACAAATTTTCCTAATCTTTCTGTTCAAGCGCCATCTAC” it was 1.01 RPM ratio (pull-down/input).
The value for “GATGATTGTTCTCCCAGCTGATGAATTAAGGACATCGAGTAAACAAATTTTCCTAATCTTTCTGTTCAAGCGCCATCTAC” was 1.06 RPM ratio (pull-down/input); that for “GATGATTGTTCTCCCAGCTGATGAATTATGCTGATCGAGTAAACAAATTTTCCTAATCTTTCTGTTCAAGCGCCATCTAC” was 1.19 RPM ratio (pull-down/input); that for “GATGATTGTTCTCCCAGCTGATGAATTGCATGTTTCGAGTAAACAAATTTTCCTAATCTTTCTGTTCAAGCGCCATCTAC” was 1.44 RPM ratio (pull-down/input).
As to “GATGATTGTTCTCCCAGCTGATGAATTACTGAGATCGAGTAAACAAATTTTCCTAATCTTTCTGTTCAAGCGCCATCTAC”, the binding signal was 0.956 RPM ratio (pull-down/input).
In the case of “GATGATTGTTCTCCCAGCTGATGAATTGTTGCAGTCGAGTAAACAAATTTTCCTAATCTTTCTGTTCAAGCGCCATCTAC” it was 1.51 RPM ratio (pull-down/input).
The value for “GATGATTGTTCTCCCAGCTGATGAATTTTTTTTATCGAGTAAACAAATTTTCCTAATCTTTCTGTTCAAGCGCCATCTAC” was 0.958 RPM ratio (pull-down/input); that for “GATGATTGTTCTCCCAGCTGATGAATTGCTGGACTCGAGTAAACAAATTTTCCTAATCTTTCTGTTCAAGCGCCATCTAC” was 0.876 RPM ratio (pull-down/input); that for “GATGATTGTTCTCCCAGCTGATGAATTCCTTTGATCGAGTAAACAAATTTTCCTAATCTTTCTGTTCAAGCGCCATCTAC” was 0.831 RPM ratio (pull-down/input).
The value for “GATGATTGTTCTCCCAGCTGATGAATTTTCAACCTCGAGTAAACAAATTTTCCTAATCTTTCTGTTCAAGCGCCATCTAC” was 0.858 RPM ratio (pull-down/input).
For “GATGATTGTTCTCCCAGCTGATGAATTTCAAACATCGAGTAAACAAATTTTCCTAATCTTTCTGTTCAAGCGCCATCTAC”, the binding signal is 1.18 RPM ratio (pull-down/input).
In the case of “GATGATTGTTCTCCCAGCTGATGAATTTTTCTGATCGAGTAAACAAATTTTCCTAATCTTTCTGTTCAAGCGCCATCTAC” it was 0.867 RPM ratio (pull-down/input).
The value for “GATGATTGTTCTCCCAGCTGATGAATTGTTAAGCTCGAGTAAACAAATTTTCCTAATCTTTCTGTTCAAGCGCCATCTAC” was 0.991 RPM ratio (pull-down/input).
In the case of “GATGATTGTTCTCCCAGCTGATGAATTCAACATTTCGAGTAAACAAATTTTCCTAATCTTTCTGTTCAAGCGCCATCTAC”, the binding signal is 0.941 RPM ratio (pull-down/input).
In the case of “GATGATTGTTCTCCCAGCTGATGAATTTAAAGGGTCGAGTAAACAAATTTTCCTAATCTTTCTGTTCAAGCGCCATCTAC” it was 0.811 RPM ratio (pull-down/input); in that of “GATGATTGTTCTCCCAGCTGATGAATTCCAGTCCTCGAGTAAACAAATTTTCCTAATCTTTCTGTTCAAGCGCCATCTAC”, 0.794 RPM ratio (pull-down/input).
In the case of “GATGATTGTTCTCCCAGCTGATGAATTAAGTGGGTCGAGTAAACAAATTTTCCTAATCTTTCTGTTCAAGCGCCATCTAC” it was 0.972 RPM ratio (pull-down/input).
The value for “GATGATTGTTCTCCCAGCTGATGAATTCCAGATCTCGAGTAAACAAATTTTCCTAATCTTTCTGTTCAAGCGCCATCTAC” was 0.753 RPM ratio (pull-down/input).
Take “GATGATTGTTCTCCCAGCTGATGAATTTCAAATGTCGAGTAAACAAATTTTCCTAATCTTTCTGTTCAAGCGCCATCTAC”: the binding signal was 0.847 RPM ratio (pull-down/input).
The value for “GATGATTGTTCTCCCAGCTGATGAATTCCTCACCTCGAGTAAACAAATTTTCCTAATCTTTCTGTTCAAGCGCCATCTAC” was 0.754 RPM ratio (pull-down/input).
